In the RNAGym collection of RNA variant scans (doi:10.7554/elife.90254) one finds self-cleavage data, which are given here for 112 variants.

Read counts are not given, so values of variants with three or more changes are uncertain.

B1: LINE1-mini (parent)
chain: GGCAGAGCUCAACACAGCGUGGCAAAGUGGCUGUGGCUAGACUGCC

In the data set the parent is B1. Description: self-cleavage, relative activity (ratio to wild type); higher = more cleavage; in vitro, sequencing; the parent is a self-cleaving ribozyme.
GGAAGAGCUCAACACAGCGUUGCAAAGUGGCUGUGGCUAGACUCCC: the self-cleavage amounted to 0.9. In the case of GGAAGACCUUAACACAUCUGGGCAAAGUGGCUGUGGCUGGACUUCC it was 0.03; in that of GGAAGAGCUCAACACAGCAUGGAAAAGUGGCUCUGGCUAGACUGCC, 0.08. Then GGAAGAGCUCAACACAGCUUGGCAAAGCGGCUGUGGCUAGACUGCG, with 0.17; and GGAAGACCUCAACACAGCGAGACAAAGUGGCUGUGGCUAGACUGCC, with 0.04; and GGAAGAGCUCAACACAGCAUGGCAAAAUGGCUGUGGCUAAACUGCC, with 0.15. As for GGAAGAGCACAACACAGCGUGGCAAAGUGGCUGUGGCUCGACUGCC, the self-cleavage is 0.07.

Take GGAAGAGCUCAACACAGCGUGACGAAGUGGUUGUGCCUAGACUGCC: the self-cleavage amounted to 0.07.

For GGAAGAUCUCAACACAGCGUGGCAAAGUGGCUAUGGCUAGACUGCC, the self-cleavage came to 0.22.

Regarding GGAAGAGCUCAACACACCGUGGCAAAGUGGCUGUGGCUAUACUACC, the self-cleavage came to 0.08. Then GGAAGAGCUCAACACAGCGUGGCAAAGUGGCUGUGGCUACACUCCC, with 0.05.

Consider GGAAGAGCUCAACACAGCGUGCCAAAGUGGCUGUGGCUAGACUGGC, for which the self-cleavage worked out at 0.02. Then GGAAGACCUCAACACAGCGUGUUAAUGUGGCUGCGGCUAGACUGCC, with 0.1. Then GGAAGAGCUCAACACAUAGUGGCAAAGUGGCUGUGGCUAGACUGCC, with 0.03. Regarding GGAAGAUCGCAACACAGCGUGGCAAAGUGGGUGUGGCUAGACUGCC, the self-cleavage is 0.16. In the case of GGAAGACCUAAACACAGCGUGGCAAAGUGGCUGUGGCUAGACUGCC it was 0.05; in that of GGAAGAGCACAACACGGCGUGGCAAAGUGGCUGUGGCCAUACUGCC, 0.13; in that of GGAAGAUCUCAACACAGCGUGGCAAAGUGGCUGUGGCUAUACUGCC, 0.07. Then GGAAGACGUCAACACAGCGUGGCAAAGUUGCUGUUGCUAGACUACA, with 0.06. For GGAAGAGCUCAACACAGCAUGGCAACGUGGCUGUGGCUAGACUGCC, the self-cleavage stood at 1.82.

Consider GGAAGAGCUCAACACAGCGUGUCAAAGUGGCUCUAGCUAGACUGCC, for which the self-cleavage came to 0.03. In the case of GGAAGAACGCAACGCAGCGUGGCAAAGUGGCUGUGGCUAGACUGAC it was 0.26; in that of GGAAGAUCUCAACACAGCCUGGCAAAGUGUCUCUGGCUAGACUGCC, 0.12; in that of GGAAGAGCUCAACACAUCGCGGCAAAGUGGCUGUGGUUAGAAUGCC, 0.26. For GGAAGACCUCAACACAGCGUGGCAAUGUUGCUGUGGUUAGACUGCC, the self-cleavage was 0.06. In the case of GGAAGAGCUCAACACAACGUGGCAAAGUGGCUGUGGAGCGACUUCC it was 0.01. Then GGAAGAGCUCAACACAGCCUGGCAAAGUGGCUGUGGUUAGACUGCC, with 0.02.

Turning to GGAAGAGCUCAACACAGCUUGGAAAAGUGGCUGUGGCUAGACUGAC, the self-cleavage came to 0.16.

With GGAAGAGCUCAACACAGCGUGGCAAAGUGACUGUGGCUAGACCACC, the self-cleavage amounted to 0.09.

As for GGAAGAGCUCAACACAGCGUGCCAAUGUGGCUGUGGCUAGACUGCC, the self-cleavage amounted to 0.11. In the case of GGAAGAGCUCAACACAGCGUGCCAACGUGGCUGUGGCUAGACUGCC it was 1.08; in that of GGAAGAGCUCAACACAGCGUGCCAAAGGGGCUCAGGCUAGACUGAC, 0.09; in that of GGAAGAGCUCAACACAUCGUGGCAAAGUGGCUGUGGCUAGACAGCA, 0.2. Take GGAAGAUCUUAACACAGCGUGGCAAAGUGGCUGAGGCUAGACUGCC: the self-cleavage was 0.04.

GGAAGAGCUCAACACAUCGUGGCAAAGUGUCUCUGGCUAGACUGCU: the self-cleavage was found to be 0.11. On to GGAAGAGCUCAACACAAGGUGGCAGAGUGGCUGUUGCUAGACUGCC, for which the self-cleavage came to 0.23. In the case of GGAAGAUCUCAACACAGCGAAGCAAAGUGGCUGUGGCUAGACUGCC it was 0.13; in that of GGAAGAGCUCAACACAUCGGGGCAAAGUGGCUGUAGCUAGACUGCC, 0.03. Consider GGAAGAGCUCAACACACCGUGUCAAAGCGGCUGUGGCUAGACUGCC, for which the self-cleavage turned out to be 0.51. For the variant GGAAGAGCUCAACACAGCGUGGCAAAGUGGCUUUGGCUAGACUGCA, the self-cleavage is 0. Then GGAAGAGCUCAACACAGCGUGGCAAAGUCGCUGUGGCGAGACUGCC, with 0.01. In the case of GGAAGAACUCAACACAGCGGGGCAAAGUGGCUGUGGCUAGACUGCC it was 0.23; in that of GGAAGAUCUCAACACAGCGUGGCAAAGUGGCUGUUGCUAGACUGCC, 0.77.

With GGAAGAGCUCAACACAGCGUCGCAAAGGGGCUGUGGCUAGACUGUC, the self-cleavage came out at 0.25. In the case of GGAAGAGCUCAACACAGCGUGCCAAAGUUGCUGUGACUAGACUGCA, the self-cleavage amounted to 0.16. Then GGAAGAGCUCAACACAGCGUGUCACAGUGGCUGUGGCUAGACUGCC, with 1.13; and GGAAGAGCUCAACACAGCAUGGCAAAGUGGCUGAGGCUAGACCGCC, with 0.02. In the case of GGAAGAGCUCAACACAGCGUGGCAAACUGGCUGUUGCUAGACUGCC it was 0.17; in that of GGAAGAGCUCAACACAGCCUGGUAAAGUGCCUGUGGCUAGAUUGCC, 0.13.

As to GGAAGAGCUCAACACAGCGUGGCAAAUUUGCUGUGGCUAGAAUGCC, the self-cleavage was 0.43. Regarding GGAAGAACGCAACACAGCGGGGCAAAGUGGCUGUGGCUGGAUUGCC, the self-cleavage turned out to be 0.8. Then GGAAGAGCUCAACACACGGUGGCAAAGUGGCUGUGGCUAGACUGCC, with 0.45. In the case of GGAAGACCUCUACACAGCUUGGCAAAGUGGCUGUGGCUAGACUGCC it was 0.01; in that of GGAAGAUCUCAACACAGCGUGGCAAAGUGGCUGUGACUAGACAGCC, 0.05.

For GGAAGAGCUCAACACAGCAUGGCAAAGUGGCUGUGACUAGACUGCC, the self-cleavage stood at 0.73. In the case of GGAAGAGCUCAACACAGCGUGGCAAAGUGACUGUGGCUAGACUGCA, the self-cleavage stood at 0.13.

GGAAGAGCUCAACACACCGUGGCAAAGUGUCUGUGGCUAGACUGCU: the self-cleavage came to 0.11.

With GGAAGAUCCCAUAACAGCCUGGCAUAGUGGCUGUGGCUAGACUGCC, the self-cleavage came to 0.01. In the case of GGAAGAGCUCAACACAGCUUGGCGAAGUGGCUGUGGCUUGACUGCC it was 0.18; in that of GGAAGAUCUCUACACAGCUUGGCAAAGUGACUGUGGCUAGACUGCC, 0.03. In the case of GGAAGACCUCAACACAGCGUGGCAAAGUGCCUGUGGCUAGACUGCC it was 0.07. On to GGAAGAGCUCAACACAGCGUGGCAAAAUGGCUGUGGCUAGACUGUC, for which the self-cleavage was 0.61.

In the case of GGAAGACGUCAACACAGCGUGGCAAGGUGGCUGCGGCUAUACUGCC, the self-cleavage was 0.09. In the case of GGAAGAGCUCAACACAGCGUGGCAAAGUGGCUGUGGCUAGACUUAC it was 0.5; in that of GGAAGAGCUCAACACAUCGUGGCUAAGUGGCUGUGACUAGACUGCC, 0.16. In the case of GGAAGAGCUCAACACAGCGUGGCAAAGUGUCAGUGGCUAGACUGCC it was 0.17; in that of GGAAGAUCCCAAGACAGCGUGGCAAAGUGGCUGUGGCUAUACUUCC, 0.01. In the case of GGAAGAGCUCAACACAGCGUGGCAAACUGGCUGCGGCUAGACUGCU it was 0.29; in that of GGAAGAACUCAACACAGCGCGGCAAAGUCGCAGUGGCUAGACUGCC, 0.63. Take GGAAGAGCUCAACACACCGUGGCAAAGUGGCUGCGGCUAGACUGCC: the self-cleavage is 0.17. In the case of GGAAGAGCUCAACACAGCGUGGCAAAGUGGCUUUUGCUAGACUGCG it was 0.09; in that of GGAAGAGCUCAACACAGCGUGGCAAAGUGGCUGUGCCUAGACGCCC, 0.4. In the case of GGAAGAGCUCAACACAUCGUGGCAAAGUGGCUGUCGCUAGACUGCC, the self-cleavage amounted to 0.12.

For the variant GGAAGAGCUCAACACAGCGUGGCAAAGUCGCUCUGGCUAUACUGCC, the self-cleavage came to 0.1. Then GGAAGAGCUCAACACAGCGUGGCAAAGUUGCUGUGGUUAGACUGCC, with 0.17; and GGAAGAGCUCAACACAGCUUGGCAAAGUGGCUGUAAUUAGACUGCC, with 0.03; and GGAAGAGCUCAACACAACGUGGCAAAGUGGCUGGGGCUAGACUGCC, with 0.07.

With GGAAGAGCUCAACACAGCGUUGCAAAGUGGCUAUGGCUAAACUGCA, the self-cleavage stood at 0.05. With GGAAGAGCUCAACACAGCGUGGCAAAGUGGCUGUAGCUAGCCUUCC, the self-cleavage worked out at 0.09.

Regarding GGAAGACCUCAACACAACGUGACAAAGUAGCUGUGGCUUAACUGUC, the self-cleavage is 0.31.

As to GGAAGAGCUCAACACAGCGUGGCAAAGUCUCUGUGGCUAGACUGCC, the self-cleavage was found to be 0.15.

As to GGAAGAGCUCAACACAGCGUGUCAAAGUGGCUGUGGCUCGACAGCC, the self-cleavage came to 0.04. For GGAAGAGCACAACACAGCGUGGCAACGUGGAUGUGGCUAGACUGCC, the self-cleavage was found to be 0.08.

Regarding GGAAGAGCUCAACACAUCGUGGCAAAGUGGCCGUGGCUAGACUGCC, the self-cleavage is 0.11. Regarding GGAAGACCUCAACACAGCGUGGCAAAGUGGCUGUGGCUAGACUGCA, the self-cleavage was 0.12. Then GGAAGAGCUCAACACAGCCUGGCAUAGUAGCUGUGGCUAGACUACC, with 1.14; and GGAAGAUCUCAACACAGCGUGGCAAAGUGGUUGUGGCUAGACUGCC, with 0.34; and GGAAGAUAUCAACACAGCGUGGCAAAGUGGCUGUGGAUAGACUGCC, with 0.03. In the case of GGAAGAGCACAACACAGCGUGGCACAGUGGCUGUGGCUAAACUGCC it was 0.18; in that of GGAAGACCUCAACACAGCGUUGCAAAGUGGAUGUUGCUAGACUGCC, 0.12. GGAAGAGCUCAACACAGCGUGCCAAAGGGGCUGUGGCUAGACUGCC: the self-cleavage worked out at 0.2. Then GGAAGAUCUCAACACAGCGUGGCAGAGUGGCUGUGGCUAGAUUUCC, with 0.03; and GGAAGACCUCAACACAGGGUGGCAAAGUGGCUGAGGCUAGACUGCC, with 0.06. In the case of GGAAGAGCUCAACACAGCGUGGCAAAGUGGCUGUGACUUGACUGCC it was 0.04; in that of GGAAGAGCAAAACACAGCGUGGCAAAGUGGCUGUGGCUAGACUGCC, 0.05; in that of GGAAGAGCUCAACACAGCUUGGCAAAGUGGCUGUGGCGAGACUGCC, 0.09. Consider GGAAGAACUCAACACAGCGUGGCAAAGUGGCAGUGGUUAGCCUGCC, for which the self-cleavage came out at 0.17. In the case of GGAAGAGCUCAACACAGCGUUGCAAUGUGGCUGUGGCUAGACUGCC it was 0.77; in that of GGAAGAGCUCAACACAGCGUGCCUAAGUGGCUGUGGCGAGACUGCC, 0.02.

In the case of GGAAGAUCUCAACAAAGCGUGGCAAAGUGGCUGUGGCUAGACUGCC, the self-cleavage was 0.17. GGAAGAGCUCAACACAGCGUGUCAAAGUUGCUGUGGCUAGACUGCC: the self-cleavage came to 0.49. Then GGAAGAGCUCAACACAGCUUGGCAAAGUGCCUGUAGCUAGACUGCC, with 0.47; and GGAAGAGCUCAACACAGCGUGGCAAAGUGGCUGUGGCUAAACUUCC, with 0.22. Then GGAAGAGCUCAACACAGCGUGGCAAAGUGGCUGUGGCUACAAUGCC, with 0.07.

GGAAGAGCUCAACACAGCGUGGCAAAGUGACUGUGGCUAGACUACA: the self-cleavage worked out at 0.1. In the case of GGAAGAGCUCAACACAGCGUGGCAAAGUGUCUGAGGCUAGACUGCC it was 0.03. For the variant GGAAGAGCUCAACACAGCGUGGCAAAGUGGCUGUGAAUAGACUGCC, the self-cleavage was determined as 1.08.

In the case of GGAAGAGCUCAACACAGCGUUGAAAAGUGGCGGUGGCUAGACUGCA, the self-cleavage was found to be 0.05. In the case of GGAAGAGCUCAACACAGCGUGACAAAGUGGCUGUGGCUUGACUGCA it was 0.09; in that of GGAAGAGCUCAACACAGCAUGGCAAAGUGGCUGAGGCUAGUCUGCC, 0.02; in that of GGAAGAGCUCAACACAGCAUGGAAAAGUGGCUGUGGUUAGACUGCC, 0.08. As to GGAAGAGCUCAACACAGCGUGGCAAAGUGCCUGUGGCUACACUGCC, the self-cleavage came out at 0.16.
